Values marked as one replicate rest on one cluster of the flow cell; about a third of the high ones do not repeat.
tested on: ATP; assay: switch fluorescence ratio, 500 uM ATP over buffer (Cy3 cluster intensity, sum of 5 cycles each) (fold (ratio)); higher = stronger signal-on switching upon ATP binding; sequences stand for … in TCGTCGGCAGCGTCAGATGTGTATAAGAGACAGTTTTTTTTTTTTTTTTTTTTTTTTT…TC; details: aptamer strand: ATP DNA aptamer (quencher-CACCTGGGGGAGTATTGCGGAGGAAGG + anchor), 100 nM annealed; ATP concentration: 500 uM; one replicate
Procedure, shortened: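 The quencher-labelled ATP aptamer, at 100 nM, was annealed to Cy3-labelled switching-strand clusters on a modified Illumina MiSeq flow-cell. The clusters were imaged in selection buffer, then after 15 min with 500 uM ATP at 22 °C, and this buffer/ATP cycle ran five times with NaOH stripping and re-annealing between runs. Per-cluster fluorescence ratios, summed target-cycle over summed buffer-cycle Cy3 intensity, were averaged per switch-domain sequence. Clusters outside 100-1000 RFU were excluded.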
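Note: ATP exposure 15 min at 22 °C before imaging.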

Sequence | switch fluorescence ratio
ATTGGAGGAA | 1.05
TGGTGGAGAA | 0.928
CCCGGGGTGG | 0.952
ATACCCACAA | 1.35
CGGTACGATT | 1.04
CCGATCTGTC | 1.18
TTGGTGCCGG | 1.01
TAAAGTGATG | 1.01
GAAATAGGCA | 0.957
GTAAGAAGCA | 0.999
ATGCGACGGG | 1.01
ATACGTGTCT | 1.03
GCAACCTC | 1.18
GACTATGGCC | 0.991
GCGACCGGAC | 1.68
TAACAGCTCT | 0.936
ATCCGATGGG | 0.996
TCTCAGTTC | 1.41
TGGTTGTCTG | 0.95
CATGCTTGCG | 0.975
ATAAAGACGA | 1
TAGTGCATCC | 1.03
GACATATAGC | 1.02

Sequence | switch fluorescence ratio
GGAAAGGACG | 1.03
GACAGGAGTT | 1.02
AATCATCTAC | 1.03
GGAGGCTTAC | 1.44
TCCTTCAAAT | 1.21
ATTACGTC | 0.947
CGCGAAGAGT | 0.987
AATGATGTTT | 0.984
GGAGGCTGCT | 1.04
TTGGCTTATG | 1
GCGAGTTTGA | 0.973
AGGGGGACCA | 0.987
AAGATATCAC | 1.08
GCGGCGGAAT | 1.1
CGAGATTCTC | 1.01
GCTGCTTGCT | 1
ATTGAATTTC | 1.01
TTGCTTCCGC | 1.91
TTTAGAGCCA | 0.991
ATAGGGCACG | 0.961
GGCCATTTCT | 1.01
CCCAATGGGA | 1.01
TAGTGAGG | 0.994

Sequence | switch fluorescence ratio
AGTTTGAGGG | 1.03
TGGAAAAGGC | 1.01
TTGACCAGAG | 1.01
TTGCTAAATA | 1.07
CATTGCTTGA | 0.964
AAACGCTCCA | 1.06
AGTCCACGGA | 1.03
CAGTACTTTT | 0.952
TGGAACAATG | 0.964
AATCCTATGG | 1.03
TATAGTTTAA | 1
TCATTTTAAA | 0.995
ATCAAGCGCG | 0.997
GCCCCCGTAA | 4.28
TCGTTGTGTC | 0.965
TATAAAGCAT | 1.01
CGGGATCGGA | 0.991
GTGGGCATCT | 0.964
GCCGTTTATA | 0.994
AGAGGGGACC | 1.15
GGGCAAAATT | 0.97
TAGCACGATC | 1.06
CTAGTAACCT | 2

Sequence | switch fluorescence ratio
ATTTGTGCTA | 1.02
TCAGGGGTAG | 1.01
TTTACTAATG | 0.98
GTATTGATTG | 0.95
GATGCGAGGC | 1.46
TGCCTCGGCT | 1.09
ATAGATTTTT | 0.974
TTTCACCAAA | 0.983
AAAGGGACA | 1.12
CCTTTATCCC | 1.16
TAATGTCAC | 1.09
AACTGTATA | 1.15
AGTCCGCCTG | 1.09
GACAAATGCC | 1.02
GAAGGTTGTT | 0.982
CTGGTGCCTG | 0.974
CGTAATGTGC | 1.22
ATAGTCGTCA | 1.04
GCTATAGTGC | 0.979
AGGGGGACA | 0.991
CCTACAGGAC | 1.43
CAATATTGAA | 1.03
AGAATGGCGT | 1.08

Sequence | switch fluorescence ratio
TAAAGTGGCC | 1.03
CACGAGCGGG | 1.03
AAAAGATAA | 0.972
ACGGCATTAG | 1.11
ATGCG | 1.06
TGCCGGGTTT | 0.99
GTGTGCCCAG | 0.979
GTAGAAAGAC | 1.09
ACGACAGTGC | 1.19
GGTCAATGCC | 1.05
ACGATAGATA | 1.05
CTTGAGAGGT | 0.983
GCACATAGAA | 1.07
GGGCAAGGGA | 1.04
GCTGCAAGTG | 1.01
CGGACCGAAC | 1.01
AGGAGAATAC | 1.2
ACATGAAAAC | 1.02
TGCAGATTC | 1.05
GGCATCTAGC | 0.986
TGAGTAGAGA | 0.978
CGTGCTAGGG | 1.01
CGCAAACTTG | 1.02

Sequence | switch fluorescence ratio
CGTTAAGAGC | 1.02
TCTTAAGTAT | 0.999
GGGCAGGTCT | 0.968
GTTACCTACA | 1.23
GCTGGGGCAT | 0.95
ATTGATTCGA | 0.973
CCCTTGGGTA | 1.04
TTGACTTAGG | 0.997
GTTGAGGCTA | 0.971
CCCGGCAGGA | 1.9
TCGTCCAGCA | 2.32
ATTGCGCCTA | 0.94
TGCTGGACGT | 1.01
GAAGTGCACC | 0.987
GACCTAATCC | 1.16
ATAAGTGTCC | 1.02
ACGAGTCGGG | 1.07
ATCGCTTTTC | 1.15
CTAAGAGTAG | 0.967
AGGGCGCAGA | 0.992
GACTCAGGG | 0.954
CGGTTATTAC | 1.13
TCTCTAATTT | 0.976

Sequence | switch fluorescence ratio
CAGCTAGGAG | 0.996
GGAATGAATA | 0.955
TCGGCGCCGG | 1.03
AGCGCCGACA | 1.01
AGGAGGTACA | 0.956
GTTTGCATCA | 0.997
ATAGAAACGC | 0.973
GTCGCAGGGG | 1.13
CATAACACCT | 1.31
CGGGCTCCTT | 0.977
AGGGCCACTA | 1.03
GATGCACTTA | 1.02
ATATTCCGCT | 1.14
TCGTTCGTGG | 1.02
GAATGGTAAT | 0.986
TAGGAGTCCG | 1.01
ACTAGACAGT | 1.02
CAGTGTCGTA | 0.981
CGCATCAGGG | 1.22

— the supplement of paper PMC10126150
